# Measured values from the BET-seq Pho4 binding data (Le et al. 2018).
# The list shows a part of the results. Values were computed here from the reads of four pooled replicates and scatter widely.
# Target: T1, Pho4 (S. cerevisiae) (UniProt P07270)
# T1 sequence: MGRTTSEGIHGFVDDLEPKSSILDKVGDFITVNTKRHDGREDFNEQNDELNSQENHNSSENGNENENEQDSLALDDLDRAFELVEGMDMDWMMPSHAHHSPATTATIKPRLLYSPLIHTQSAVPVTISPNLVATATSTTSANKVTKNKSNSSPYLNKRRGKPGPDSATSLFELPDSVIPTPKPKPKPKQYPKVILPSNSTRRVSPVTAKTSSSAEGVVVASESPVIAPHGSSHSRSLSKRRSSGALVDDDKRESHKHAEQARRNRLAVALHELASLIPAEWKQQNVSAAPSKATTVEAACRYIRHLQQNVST
# Assay: relative binding free energy (BET-seq); higher = weaker binding
# Details: reference: library average
row,Sequence,relative binding free energy
1,TATTCCACGTGGTTTG,-0.06 kcal/mol
2,CTTTTCACGTGGGGTG,0.12 kcal/mol
3,GCAATCACGTGTAGGT,0.26 kcal/mol
4,AAGGCCACGTGGTGTT,-0.17 kcal/mol
5,TGTGTCACGTGTGAGC,0.17 kcal/mol
6,GTACACACGTGGTGTT,0.04 kcal/mol
7,GGTTGCACGTGAGGTT,0.22 kcal/mol
8,TCACGCACGTGGGGGA,-0.19 kcal/mol
9,TTATTCACGTGTGGAC,0.37 kcal/mol
10,AGGTCCACGTGTTGGG,0.07 kcal/mol
11,TAATTCACGTGTTATT,0.22 kcal/mol
12,TGCAGCACGTGGTTGG,-0.17 kcal/mol
13,CGTCTCACGTGATGGG,0.24 kcal/mol
14,GTGTACACGTGCTGAG,0.05 kcal/mol
15,TTCTTCACGTGTAGGA,0.25 kcal/mol
16,ATATGCACGTGAGTTC,0.19 kcal/mol
17,AGGAACACGTGTAAGG,0.1 kcal/mol
18,GGTTTCACGTGAAGGA,0.5 kcal/mol
19,GAATTCACGTGCTTGT,0.24 kcal/mol
20,TTGAGCACGTGACTTT,0.04 kcal/mol
21,ATTATCACGTGAGTTC,0.27 kcal/mol
22,AATTTCACGTGGTGGT,0.33 kcal/mol
23,TTGTGCACGTGTATGC,0.04 kcal/mol
24,ATGTTCACGTGAAAGG,0.42 kcal/mol
25,TAGCTCACGTGGTTGG,0.21 kcal/mol
26,CTGGGCACGTGATTGC,0.08 kcal/mol

row,Sequence,relative binding free energy
1,TTTAACACGTGGTTCA,-0.11 kcal/mol
2,TGTTGCACGTGATAAA,0.02 kcal/mol
3,CTGTACACGTGCAGGG,0.07 kcal/mol
4,GCCGGCACGTGGGTTG,-0.23 kcal/mol
5,TTTATCACGTGGAGGT,0.29 kcal/mol
6,GGGGTCACGTGATGGC,0.33 kcal/mol
7,GTCTTCACGTGGTGTG,0.12 kcal/mol
8,TATATCACGTGGCCGG,-0.01 kcal/mol
9,TAATTCACGTGCGGAG,0.35 kcal/mol
10,GAGGGCACGTGAGGTT,0.13 kcal/mol
11,GGCAGCACGTGGGGGT,-0.2 kcal/mol
12,CGATTCACGTGTTTGT,0.26 kcal/mol
13,GATCACACGTGGGGTT,0.08 kcal/mol
14,CCTATCACGTGGGTAT,0.18 kcal/mol
15,GGGTGCACGTGTAGCT,-0.05 kcal/mol
16,TAATACACGTGGAGGT,0.02 kcal/mol
17,CGAGGCACGTGGCATG,-0.16 kcal/mol
18,TGTATCACGTGGTACT,0.04 kcal/mol
19,TGAATCACGTGGCTTA,0.1 kcal/mol
20,TTGAACACGTGCGGTT,0.01 kcal/mol
21,GACCGCACGTGGGGTT,-0.06 kcal/mol
22,AGAGGCACGTGGGAGA,-0.22 kcal/mol
23,TTGTGCACGTGTTGAG,0.05 kcal/mol
24,ATCGGCACGTGTTTTG,-0.06 kcal/mol
25,GGTGACACGTGGACAG,0.13 kcal/mol
26,AATTTCACGTGAGGGA,0.35 kcal/mol

row,Sequence,relative binding free energy
1,CTGAGCACGTGGGGGG,-0.16 kcal/mol
2,GCTTGCACGTGTTTTT,0.08 kcal/mol
3,TTGATCACGTGCATTG,0.22 kcal/mol
4,TGGCACACGTGGGGCT,-0.13 kcal/mol
5,TAAGTCACGTGTTTTA,0 kcal/mol
6,GGTTGCACGTGTAAAT,0.17 kcal/mol
7,GTGCTCACGTGGTTGA,0.11 kcal/mol
8,GGGCGCACGTGGGGAG,-0.02 kcal/mol
9,CGACGCACGTGGTTGT,-0.13 kcal/mol
10,ATGGGCACGTGTGAAT,0.01 kcal/mol
11,TTTAACACGTGAGTTG,0.16 kcal/mol
12,TGATACACGTGTAATT,0.03 kcal/mol
13,GGTGACACGTGTTGTC,0.05 kcal/mol
14,TAGTGCACGTGTGCGG,0.03 kcal/mol
15,GGTTACACGTGGACAG,0.13 kcal/mol
16,TGGATCACGTGTGAGA,0.33 kcal/mol
17,TTGCTCACGTGTTCGG,0.18 kcal/mol
18,TTGGTCACGTGCGGCG,0.08 kcal/mol
19,GAGTCCACGTGGGGGG,-0.04 kcal/mol
20,TTGCACACGTGTGTGA,0.16 kcal/mol
21,TTAGTCACGTGATAAT,0.12 kcal/mol
22,ATGTTCACGTGGGGGT,0.18 kcal/mol
23,AATGGCACGTGAGGAT,-0.08 kcal/mol
24,AGCTGCACGTGAAGGT,0.25 kcal/mol
25,TATTTCACGTGTTATC,0.41 kcal/mol
26,TAACGCACGTGGGGTG,-0.41 kcal/mol

row,Sequence,relative binding free energy
1,CTGGTCACGTGTATGT,0.14 kcal/mol
2,GGGCGCACGTGATATG,0.15 kcal/mol
3,AGGCTCACGTGTACGG,0.3 kcal/mol
4,TGCGACACGTGGGTGT,-0.1 kcal/mol
5,TATTCCACGTGAAGGG,0.24 kcal/mol
6,CATCTCACGTGTGGTT,0.4 kcal/mol
7,ATGTGCACGTGGATTA,0.09 kcal/mol
8,GTGTGCACGTGTGCCA,0.06 kcal/mol
9,TAGGGCACGTGGAGGT,-0.13 kcal/mol
10,CGGTGCACGTGTAGGG,-0.04 kcal/mol
11,ATCGTCACGTGTGGAT,0.37 kcal/mol
12,GTTGGCACGTGAGGAA,0.22 kcal/mol
13,GGTAGCACGTGGGCCA,-0.14 kcal/mol
14,TGCGGCACGTGATGGT,0 kcal/mol
15,TGTGTCACGTGTACTT,0.15 kcal/mol
16,AGTATCACGTGTGAAG,0.14 kcal/mol
17,TTAGTCACGTGTTATT,0.19 kcal/mol
18,CGTGGCACGTGAGCGT,0.03 kcal/mol
19,GCTTTCACGTGGTTAC,0.49 kcal/mol
20,GGATGCACGTGGCGAG,-0.11 kcal/mol
21,TTGTGCACGTGCGATT,-0.09 kcal/mol
22,TGTATCACGTGTTCTG,0.22 kcal/mol
23,TATTGCACGTGGATTT,0.15 kcal/mol
24,TTACACACGTGTGGTT,0.11 kcal/mol
25,TTTGGCACGTGGTGTA,-0.2 kcal/mol
26,GCAGACACGTGCGGGG,0.02 kcal/mol

row,Sequence,relative binding free energy
1,CTGTACACGTGTGTGG,0.03 kcal/mol
2,TTTTACACGTGTTAAT,0.1 kcal/mol
3,TGGGGCACGTGGCGCA,-0.27 kcal/mol
4,TAGGTCACGTGAAGCT,0.22 kcal/mol
5,ATTGGCACGTGGAGGA,-0.11 kcal/mol
6,TAGTGCACGTGCTGAG,0.05 kcal/mol
7,TTCAGCACGTGTGTGA,0 kcal/mol
8,ATTGCCACGTGGCGAG,-0.06 kcal/mol
9,TGAGTCACGTGTGACG,0.35 kcal/mol
10,ATATGCACGTGCGTAT,-0.03 kcal/mol
11,CTGGTCACGTGTTTTT,0.23 kcal/mol
12,GCTTGCACGTGAGGGG,0.2 kcal/mol
13,AACTACACGTGTGGGG,0.09 kcal/mol
14,AGTTTCACGTGGATGT,0.22 kcal/mol
15,GAATGCACGTGTTGGC,0.14 kcal/mol
16,GTTGGCACGTGAGGCC,0.23 kcal/mol
17,CTGATCACGTGATGTG,0.27 kcal/mol
18,TGTTGCACGTGCATGG,-0.11 kcal/mol
19,ATCGACACGTGCTTGG,0.14 kcal/mol
20,TGAGGCACGTGAAGGT,0.1 kcal/mol
21,TGTCTCACGTGTTTCG,0.21 kcal/mol
22,GGGGCCACGTGTGACG,0.1 kcal/mol
23,TGAGGCACGTGTGATC,-0.01 kcal/mol
24,ATGGTCACGTGTCCTT,0.25 kcal/mol
25,GGTCTCACGTGGATGT,0.27 kcal/mol
26,GGTATCACGTGTGCGG,0.16 kcal/mol

row,Sequence,relative binding free energy
1,AGTCTCACGTGATGGA,0.41 kcal/mol
2,ATGGGCACGTGCTATT,-0.07 kcal/mol
3,TTGAGCACGTGTCTTA,-0.05 kcal/mol
4,GTAAACACGTGATTTA,0.36 kcal/mol
5,TATGGCACGTGTGTAG,-0.05 kcal/mol
6,ACTTGCACGTGGCGGG,-0.09 kcal/mol
7,ATCGGCACGTGGGGGG,-0.18 kcal/mol
8,TTGTACACGTGGAGTA,0.14 kcal/mol
9,AGAGGCACGTGCTATT,0.02 kcal/mol
10,TGCGGCACGTGGGAAA,-0.05 kcal/mol
11,ATCGTCACGTGTAGTG,0.02 kcal/mol
12,GGAGACACGTGGAAGG,0.17 kcal/mol
13,GTAATCACGTGTTAGG,0.19 kcal/mol
14,CATTGCACGTGGATTT,-0.07 kcal/mol
15,GTGGGCACGTGGTAGT,-0.05 kcal/mol
16,CTTAGCACGTGGTGCG,-0.16 kcal/mol
17,TTTGTCACGTGAAGTC,0.39 kcal/mol
18,CTGGACACGTGCGCGG,0.1 kcal/mol
19,ACTGTCACGTGTTGGA,0.18 kcal/mol
20,GGATCCACGTGTTGTG,0 kcal/mol
21,TTGGTCACGTGTCTCG,0.1 kcal/mol
22,ATATGCACGTGATGCG,-0.12 kcal/mol
23,TATGGCACGTGTGAAA,-0.05 kcal/mol
24,GGTAGCACGTGGCGAG,-0.06 kcal/mol
25,TGGGACACGTGGACTT,0.1 kcal/mol
26,CTGTGCACGTGTGGAA,0.06 kcal/mol

row,Sequence,relative binding free energy
1,AAGTACACGTGCGGGG,0.06 kcal/mol
2,GTGGTCACGTGAGCAT,0.38 kcal/mol
3,TGCATCACGTGACGTT,0.31 kcal/mol
4,GGCGACACGTGATTGT,0.32 kcal/mol
5,GTGGACACGTGCATTG,0.08 kcal/mol
6,ACCGGCACGTGGGTGG,-0.26 kcal/mol
7,AGGGACACGTGGTCGT,-0.04 kcal/mol
8,AGCTTCACGTGTAGGA,0.23 kcal/mol
9,TTACTCACGTGAATGT,0.42 kcal/mol
10,AGGTGCACGTGGTGAA,0.08 kcal/mol
11,GTTGTCACGTGTGCCT,0.11 kcal/mol
12,GATGGCACGTGCTGGT,-0.01 kcal/mol
13,GGCTACACGTGTGGAA,0.29 kcal/mol
14,TATGGCACGTGTGAGA,-0.08 kcal/mol
15,TGCTTCACGTGTTAAT,0.2 kcal/mol
16,ATGTTCACGTGGGAAC,0.17 kcal/mol
17,GTTCGCACGTGCGGGA,-0.07 kcal/mol
18,GATTTCACGTGTCTTT,0.45 kcal/mol
19,GGTGGCACGTGAACTG,0.21 kcal/mol
20,AGTGCCACGTGGGGAT,-0.07 kcal/mol
21,TTGTGCACGTGGCAAG,-0.17 kcal/mol
22,TTCGGCACGTGGTTTT,-0.08 kcal/mol
23,GGTTGCACGTGGGCAA,-0.11 kcal/mol
24,GGGACCACGTGAGGAG,0.23 kcal/mol
25,TTGGACACGTGAAGGC,0.29 kcal/mol
26,TGGGACACGTGGAGAG,0.07 kcal/mol

row,Sequence,relative binding free energy
1,AGATTCACGTGTTGAG,0.21 kcal/mol
2,GGCGGCACGTGGCACG,-0.1 kcal/mol
3,TTAGGCACGTGAAAGA,0.1 kcal/mol
4,AAGTTCACGTGGGGCG,0.22 kcal/mol
5,AGTTACACGTGGTGTT,-0.03 kcal/mol
6,GTCTGCACGTGTTTTG,-0.08 kcal/mol
7,GTATTCACGTGGTGTG,0.19 kcal/mol
8,CTGTGCACGTGGTTGA,0 kcal/mol
9,AGTCGCACGTGTACGG,-0.04 kcal/mol
10,AGATTCACGTGGAGTG,0.21 kcal/mol
11,TGGCTCACGTGGGTAA,0.15 kcal/mol
12,CGTTCCACGTGGTTGG,0.11 kcal/mol
13,GTTTACACGTGTTTTC,0.21 kcal/mol
14,TTGACCACGTGTGTGT,0.01 kcal/mol
15,GTAAGCACGTGTGAGT,0.24 kcal/mol
16,TGTCGCACGTGAAGCG,0.18 kcal/mol
17,GGGAGCACGTGGGTTG,-0.11 kcal/mol
18,GTGTTCACGTGGATCT,0.25 kcal/mol
19,TAATACACGTGTTAAT,0.09 kcal/mol
20,TCTCTCACGTGGGGGG,0.05 kcal/mol
21,TGAGGCACGTGCTTGA,-0.11 kcal/mol
22,TGATCCACGTGGTATG,-0.1 kcal/mol
23,TGTCACACGTGTAGGG,0.15 kcal/mol
24,ATTTTCACGTGCCGGT,0.26 kcal/mol
25,ATGCGCACGTGGCTGG,-0.31 kcal/mol
26,GTAGGCACGTGACGTG,-0.04 kcal/mol

row,Sequence,relative binding free energy
1,TGCGACACGTGGAGGG,0.01 kcal/mol
2,TGGCACACGTGGGTCT,-0.07 kcal/mol
3,CGGGTCACGTGGAATG,0.16 kcal/mol
4,CAGGTCACGTGTGGGC,0.18 kcal/mol
5,GGTTGCACGTGGATCG,0.09 kcal/mol
6,ATAGCCACGTGGTTTG,-0.07 kcal/mol
7,TAGTACACGTGGTCGT,0.04 kcal/mol
8,TGTGTCACGTGGCCGT,0.07 kcal/mol
9,TAATTCACGTGCAATT,0.29 kcal/mol
10,TGTATCACGTGTTATG,0.14 kcal/mol
11,CGAATCACGTGCGGGG,0.09 kcal/mol
12,TGTGTCACGTGCTATG,-0.06 kcal/mol
13,AGCGTCACGTGTAAGT,0.09 kcal/mol
14,GTAGTCACGTGTGGAA,-0.01 kcal/mol
15,CGGTACACGTGGAGGC,0.13 kcal/mol
16,TGTGTCACGTGGTCAC,0 kcal/mol
17,CCGTTCACGTGGCGGT,0.3 kcal/mol
18,GTGCTCACGTGAGCGG,0.34 kcal/mol
19,AAGCGCACGTGGAGTG,-0.14 kcal/mol
20,GTGCGCACGTGAGGGA,0.17 kcal/mol
21,TGTTCCACGTGTAGTA,0.11 kcal/mol
22,ACTGTCACGTGGGCGG,-0.16 kcal/mol
